The text below walks through data of publication PMC4866044, “The RanBP2/RanGAP1*SUMO1/Ubc9 SUMO E3 ligase is a disassembly machine for Crm1-dependent nuclear export complexes” (Nature Communications, 2016).

This experiment addresses T1, RanBP2-3/4 complex (RanBP2-3/4-His / RanGAP1*SUMO1 / Ubc9) (human, UniProt P49792 2304-3062; P46060 1-587; P63165; P63279, SUMO1 conjugated in vitro (C-terminal tail domain) | conjugated to RanGAP1).
T1 construct: RanBP2 (Nup358), human, aa 2,304-3,062, 86 kDa fragment spanning RanBD3 and RanBD4; RanGAP1, full length; SUMO1, conjugated to RanGAP1 in vitro; Ubc9, untagged, full length; also called RanBP2/RanGAP1*SUMO1/Ubc9 complex; RanBP2 complex; source: bacterial expression constructs; components purified, RanGAP1 SUMOylated in vitro, complex formed on ice overnight and purified on MonoQ; not shown: His, …
Put plainly: SEC; co-migration on Superdex200 5/150 GL; RanBP2 complex variant or fragment 0.5-1 μM with Crm1 variant or other receptor 1-2 μM; incubated in SAB (TB with 0.2 mg/ml ovalbumin, 0.05% Tween) on ice overnight, column in TB pH 7.3; peak fractions by SDS-PAGE and Coomassie. The note with it: both partners purified.

T1 sequence (P49792 2304-3062, chain 1 of 4): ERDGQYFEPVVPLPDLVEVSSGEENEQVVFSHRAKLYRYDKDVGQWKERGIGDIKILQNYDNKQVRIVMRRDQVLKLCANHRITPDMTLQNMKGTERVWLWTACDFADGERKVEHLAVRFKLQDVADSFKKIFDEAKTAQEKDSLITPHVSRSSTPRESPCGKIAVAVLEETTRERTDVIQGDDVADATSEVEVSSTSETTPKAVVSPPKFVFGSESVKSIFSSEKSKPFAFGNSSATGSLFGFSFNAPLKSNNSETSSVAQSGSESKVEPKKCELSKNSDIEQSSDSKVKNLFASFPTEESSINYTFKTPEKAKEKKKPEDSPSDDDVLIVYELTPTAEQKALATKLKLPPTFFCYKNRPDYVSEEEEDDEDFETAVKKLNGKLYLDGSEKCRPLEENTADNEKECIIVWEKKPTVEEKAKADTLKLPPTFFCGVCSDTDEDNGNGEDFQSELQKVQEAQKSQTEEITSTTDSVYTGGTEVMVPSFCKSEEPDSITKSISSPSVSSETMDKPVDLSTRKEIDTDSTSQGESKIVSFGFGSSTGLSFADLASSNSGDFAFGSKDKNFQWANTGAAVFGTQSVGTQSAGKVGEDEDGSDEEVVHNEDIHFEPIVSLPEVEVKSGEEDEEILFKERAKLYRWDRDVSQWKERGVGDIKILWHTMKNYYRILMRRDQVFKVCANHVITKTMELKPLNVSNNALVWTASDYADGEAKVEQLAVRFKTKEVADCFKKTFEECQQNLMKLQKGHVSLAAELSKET
T1 sequence (P46060 whole entry, chain 2 of 4, further chain, the tested form may be a part): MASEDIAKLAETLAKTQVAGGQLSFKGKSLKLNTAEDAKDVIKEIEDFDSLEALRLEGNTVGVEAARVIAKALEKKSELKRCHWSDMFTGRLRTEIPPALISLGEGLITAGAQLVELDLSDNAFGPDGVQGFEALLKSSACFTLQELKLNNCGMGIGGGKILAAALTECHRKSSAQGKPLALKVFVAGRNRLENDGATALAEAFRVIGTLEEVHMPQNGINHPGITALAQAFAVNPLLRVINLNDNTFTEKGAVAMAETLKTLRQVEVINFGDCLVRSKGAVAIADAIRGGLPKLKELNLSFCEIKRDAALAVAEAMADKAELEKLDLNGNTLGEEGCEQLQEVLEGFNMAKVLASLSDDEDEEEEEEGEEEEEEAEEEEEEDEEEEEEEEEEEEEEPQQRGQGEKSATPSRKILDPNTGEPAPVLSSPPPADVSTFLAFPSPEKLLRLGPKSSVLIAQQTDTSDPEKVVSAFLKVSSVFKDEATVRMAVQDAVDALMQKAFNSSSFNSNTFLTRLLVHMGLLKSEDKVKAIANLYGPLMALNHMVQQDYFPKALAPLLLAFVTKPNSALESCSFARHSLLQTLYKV
T1 sequence (P63165 1-97, chain 3 of 4, further chain): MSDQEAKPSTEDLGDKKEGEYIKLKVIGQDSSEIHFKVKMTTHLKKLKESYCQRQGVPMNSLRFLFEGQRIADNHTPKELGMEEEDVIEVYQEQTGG
T1 sequence (P63279 whole entry, chain 4 of 4, further chain, the tested form may be a part): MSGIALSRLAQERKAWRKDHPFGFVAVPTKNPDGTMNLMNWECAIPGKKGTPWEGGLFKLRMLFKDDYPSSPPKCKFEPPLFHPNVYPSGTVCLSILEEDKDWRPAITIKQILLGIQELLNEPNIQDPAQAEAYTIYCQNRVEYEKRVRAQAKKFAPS

B1: […]A/W880A (natural protein)
chain: not shown
notes: made from the Crm1-His construct; also called Crm1 double-mutant; source: bacterial expression, purified
With B1, the binding result is given as “binds”.
